A number of entries come with more than one value. This list holds those alone. How the calls were made is not given here. An entry can have further records. Values given together repeat one measurement (runs, samples, wells, individuals or studies). A tag in brackets gives the origin of a value. The letters are not those of the source and start again with each entry.
What was measured:
NS3h 1b[con1] = test: HCV NS3 helicase inhibition across viral strains, late-stage follow-up, selectivity assay for HCV NS3 helicase inhibitor project, biochemical, real-time fluorescence, strains con1 and JFH1, set 3 (AID 602275); conditions: Recombinant NS3h, real-time fluorescence helicase unwinding
NS3h 2a[JFH1] = test: as above; conditions: Recombinant NS3h, real-time fluorescence helicase unwinding

Cc1ccc2nc(-c3ccc4nc(-c5ccc(N)cc5)sc4c3)sc2c1S(=O)(=O)O
IC50 (NS3h 1b[con1]): 5.6 µM [sample A] and 45.3 µM [sample B] and inactive [sample C] | IC50 (NS3h 2a[JFH1]): 7.3 µM [sample A] and inactive [sample B]

Reference: PubChem BioAssay AID602275 (The Scripps Research Institute Molecular Screening Center, 2012)
